Assay results from PubChem BioAssay AID493208 (National Center for Advancing Translational Sciences (NCATS), 2011).
The campaign covered roughly 44,000 compounds. About 340 (0.77%) were called active. Another 5% or so got no clear call; they are omitted. The call rests on the fitted dose curve; in most records, active means well fitted inhibition curve with a large enough effect; inconclusive means small, poorly fitted or top-dose-only effect; inactive means flat fitted curve, though single readings scatter. This is one part of the list.

test: Acumen qHTS Assay for Inhibitors of the mTORC1 Signaling Pathway in MEF (Tsc2-/-, p53-/-) Cells: Sytravon; settings: phospho-rpS6 immunofluorescence/PI, 24 h; series mostly up to 38.3 µM; activity change, negative = inhibition: at the top concentration;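 further: plate controls were DMSO for no effect and rapamycin for full effect; nearly all actives have a fitted effect of over 50% in size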
In short: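 Compounds act on Tsc2-/-, p53-/- fibroblasts carrying an empty vector for 24 h before fixation and dual staining for phospho-S6 and DNA (propidium iodide). Values are percentages of cells above a rapamycin-defined pS6/PI threshold.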

Compound	activity change, negative = inhibition
CCN(CC)CCCNC(=O)c1nn(-c2ccc(OC)cc2)c(=O)c2c1c1ccccc1n2C	inactive: 0.618%
O=c1c2ccccc2nc(N2CCN(c3cccc(Cl)c3)CC2)n1-c1ccccc1	inactive: 4.92%
CCC(C(=O)N1CCN(c2ccc(OC)cc2)CC1)n1nc(C)n2c(cc3occc32)c1=O (stereo unspecified)	inactive: -20.7%
Nc1ccc(S(=O)(=O)NC2(C(F)(F)F)NC(=O)N(c3cccc(Cl)c3)C2=O)cc1 (stereo unspecified)	inactive: -16.7%
COC(=O)c1cccc(CN2C(=O)SC(Nc3ccc(Cl)cc3)C2=O)c1 (stereo unspecified)	inactive: -16.9%
COc1ccc(Nc2c3c(nc4nncn24)CCC3)cc1Cl	inactive: -12.8%
CCOC(=O)c1noc2ncnc(Nc3cccc(C(F)(F)F)c3)c12	inactive: -21.4%
O=C(Nc1ccccc1C(F)(F)F)N1CCC2(CC1)Oc1ccccc1C(=O)N2Cc1ccccc1F	inactive: -5.94%
COCCNC(=O)c1ccc2c(c1)N(Cc1c(F)cccc1Cl)C(=O)c1ccccc1S2	inactive: -1.79%
CCOC(=O)c1c(C)oc2nc(C)nc(NCc3ccc(OC)cc3)c12	inactive: 2.92%
CCCCOc1ccc(C(=O)Nc2nc3c(s2)CC(C)CC3)cc1 (stereo unspecified)	inactive: -5.79%
CCCc1cc(=O)[nH]c(Nc2ccc(C)c(O)c2)n1	inactive: 7.97%
CC(=O)Nc1ccc(NC(=O)CCc2c(C)nc3c(c(C)nn3-c3ccccc3)c2C)cc1	inactive: -1.81%
Cc1cnc2c(c1SCC(=O)NCc1ccccc1Cl)c(=O)n(C)c(=O)n2C	inactive: -0.273%
CC(C)(Oc1ccc(Cl)cc1)C(=O)Nc1nnc2n1CCS2	inactive: -1.86%
COc1cccc(C(=O)Nc2cccc(OCc3cc(=O)n4cccc(C)c4n3)c2)c1	inactive: 2.93%
Cc1ccc(NC(=O)CCC(=O)N2CCSc3ccccc32)cc1	inactive: -15.3%
CCCCNC(=O)CC1N=C2c3ccccc3N=C(SCC(=O)NCc3ccccc3Cl)N2C1=O (stereo unspecified)	inactive: 7.4%
CCOc1ccc(NC(=O)Cn2cc(C(=O)c3ccccc3)c(=O)c3cc4c(cc32)OCCO4)cc1	inactive: 4.5%
COC(=O)c1ccc(NC(=O)CC2C(=O)N(c3ccc(C)cc3)C(=O)N2Cc2ccc(OC)cc2)cc1 (stereo unspecified)	inactive: -4.3%
O=C(COc1ccccc1)Nc1nnc(SCc2cc(=O)c3ccccc3[nH]2)s1	inactive: 5.82%

Compound	activity change, negative = inhibition
Clc1ccc(-c2noc(-c3cccnc3N3CCN(c4ccccc4)CC3)n2)cc1	inactive: 0.778%
Cc1ccc(C)c(N2CCN(C(=O)c3nn(C)c4c3CS(=O)(=O)c3ccccc3-4)CC2)c1	inactive: 5.52%
Cc1ccn2c(Nc3ccccc3C)c(-c3cccnc3)nc2c1	inactive: 2.11%
CCN(C(=O)CSc1nc2ccccc2n1CC(=O)N1CCCC(C)C1)c1ccccc1 (stereo unspecified)	inactive: 0.791%
CCOc1ccc(CCNC(=O)C2CCN(Cc3nc(-c4ccccc4C)oc3C)CC2)cc1OCC	inactive: 1.42%
Cn1c(=O)c(=O)n(C)c2cc(S(=O)(=O)Nc3ccc(Cl)c(C(F)(F)F)c3)ccc21	inactive: 5.67%
Fc1ccc(Nc2c(-c3ccco3)nc3ccccn23)cc1	inactive: -1.47%
Cc1ccc(C2c3[nH]c4ccccc4c3CCN2C(=O)CCc2ccccc2)cc1 (stereo unspecified)	inactive: -11.8%
Cc1ccc(NC(=O)C2CCC(CNS(=O)(=O)c3ccc4c(c3)C(C)(C)C(=O)N4C)CC2)cc1 (stereo unspecified)	inactive: -8.42%
CC(C)(C)c1ccc(C(=O)N2CCN(Cc3cc(=O)n4nc(-c5ccccc5F)sc4n3)CC2)cc1	inactive: -19.1%
CCOc1ccc(CNC(=O)Cc2ccc(NC(=O)N3CCCCc4ccccc43)cc2)cc1OC	inactive: -9.34%
COc1cc(OC)c(NC(=O)Cn2cnc3nc4c(cc3c2=O)CCCC4)cc1Cl	inactive: 2.05%
Cc1cc(=O)oc2cc(OCC(=O)Nc3c(C(C)C)cccc3C(C)C)ccc12	inactive: 10.3%
Clc1ccc(-c2nnn3c2nc(NCc2ccc4c(c2)OCO4)c2ccccc23)cc1	inactive: -7.22%
COc1ccc(CCn2c(=O)c3cccnc3n(CC(=O)Nc3c(C)cc(C)cc3C)c2=O)cc1OC	inactive: -4.64%
CCCc1cc(N2CCN(c3ccc(OC)cc3)CC2)n2cnnc2n1	inactive: -9.71%
COc1cc(NC(=O)CCNC(=O)Cn2cnc3ccccc3c2=O)cc(OC)c1OC	inactive: -0.262%
Cc1cc(C)c(NC(=O)Nc2csc3c2CCCC3)c(C)c1	inactive: -2.45%
O=C(CCCCCn1c(=O)[nH]c2ccccc2c1=O)NCc1ccc(Cl)cc1	inactive: 0.368%
CCC(=O)N1CCc2cc(Br)cc(S(=O)(=O)NCc3ccccc3)c21	inactive: -11.6%
COc1ccccc1-c1nc(SCC(=O)Nc2ccc(C)c(C)c2)n[nH]1	inactive: -13.9%

Compound	activity change, negative = inhibition
CSc1ccc(CCNC(=O)C2CCN(c3ncnc4c3nc3n4CCCCC3)CC2)cc1	inactive: 2.79%
CCN(CC)C(=O)COc1ccc(-c2nnc(Nc3ccc(OC)c(C(=O)NC)c3)c3ccccc23)cc1	inactive: -20.6%
Cc1sc2ncn(CC(=O)N(C)c3cccc(C(F)(F)F)c3)c(=O)c2c1S(=O)(=O)N1CCN(c2ncccn2)CC1	inactive: -19.1%
Fc1ccc(-n2ncc3c(N4CCN(c5ccccc5F)CC4)ncnc32)cc1	inactive: 0%
Cc1cc(=O)oc2c3c(ccc12)OCN(Cc1ccc(Cl)cc1)C3	inactive: 0.115%
CCc1nn2c(=O)cc(COC(=O)c3ccccc3NC(=O)c3cccs3)nc2s1	inactive: 0%
CCn1nc(C)c2c(-c3ccccc3)cc(=O)n(C(C)C(=O)NCCc3ccccc3)c21 (stereo unspecified)	inactive: 5.73%
CCC1CCCCN1C(=O)Cn1c(=O)n(CCCCCC(=O)NCc2ccccc2Cl)c(=O)c2sccc21 (stereo unspecified)	inactive: 0.544%
O=C(NCCc1ccc(Cl)cc1)c1ccc2c(c1)N(Cc1cccc(Cl)c1)C(=O)c1ccccc1S2(=O)=O	inactive: 0.397%
Fc1ccccc1Nc1ncnc2c1nc1n2CCCCC1	inactive: -4.46%
Cc1cccc(CCNC(=O)c2c[nH]c3ccc(S(=O)(=O)Nc4ccccc4F)cc3c2=O)c1	inactive: 0.551%
COC(=O)c1ccc(NC(=O)CC2C(=O)N(c3cccc(C)c3)C(=O)N2C2CCCC2)cc1 (stereo unspecified)	inactive: 0.518%
Fc1ccc(Cn2c(-c3cccc(Br)c3)nc3ccccc32)cc1	inactive: -2.65%
CCOc1ccc(CCNC(=O)Cn2nc(CC)n3c(cc4sccc43)c2=O)cc1	inactive: 0.374%
O=C(NCCc1nc2ccccc2n1CCCOc1ccc(Cl)cc1)C1CCCCC1	inactive: 4.61%
O=C(Nc1c2c(nn1-c1ccc(Cl)cc1)CS(=O)(=O)C2)c1ccccc1F	inactive: 16%
Cc1nn2c(C)c(C(=O)NCC(C)c3ccccc3)cnc2c1-c1ccccc1 (stereo unspecified)	inactive: 3.63%
COc1ccc(C2NC(=O)N(C)C3=C2C(=O)N(c2ccc(F)cc2)C3)cc1 (stereo unspecified)	inactive: -14.9%
COc1ccc(C(=O)Nc2noc3ccccc23)cc1	inactive: 3.42%
